# Test results: publication PMC4336329 (PLoS ONE, 2015)
# The campaign covered roughly 310,000 compounds. About 14,000 (4.5%) showed an effect of 50% or more. Effects have a minus sign here. Some of the results follow.
# Target: human ether-à-go-go-related gene (hERG) potassium channel (human, UniProt Q12809)
# Test: primary screen, population patch clamp on CHO cells stably expressing hERG
# 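Also: peak tail current of the secondary pulse compared with the same well before compound.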
# Chain of human ether-à-go-go-related gene (hERG) potassium channel (Q12809 whole entry, looked up): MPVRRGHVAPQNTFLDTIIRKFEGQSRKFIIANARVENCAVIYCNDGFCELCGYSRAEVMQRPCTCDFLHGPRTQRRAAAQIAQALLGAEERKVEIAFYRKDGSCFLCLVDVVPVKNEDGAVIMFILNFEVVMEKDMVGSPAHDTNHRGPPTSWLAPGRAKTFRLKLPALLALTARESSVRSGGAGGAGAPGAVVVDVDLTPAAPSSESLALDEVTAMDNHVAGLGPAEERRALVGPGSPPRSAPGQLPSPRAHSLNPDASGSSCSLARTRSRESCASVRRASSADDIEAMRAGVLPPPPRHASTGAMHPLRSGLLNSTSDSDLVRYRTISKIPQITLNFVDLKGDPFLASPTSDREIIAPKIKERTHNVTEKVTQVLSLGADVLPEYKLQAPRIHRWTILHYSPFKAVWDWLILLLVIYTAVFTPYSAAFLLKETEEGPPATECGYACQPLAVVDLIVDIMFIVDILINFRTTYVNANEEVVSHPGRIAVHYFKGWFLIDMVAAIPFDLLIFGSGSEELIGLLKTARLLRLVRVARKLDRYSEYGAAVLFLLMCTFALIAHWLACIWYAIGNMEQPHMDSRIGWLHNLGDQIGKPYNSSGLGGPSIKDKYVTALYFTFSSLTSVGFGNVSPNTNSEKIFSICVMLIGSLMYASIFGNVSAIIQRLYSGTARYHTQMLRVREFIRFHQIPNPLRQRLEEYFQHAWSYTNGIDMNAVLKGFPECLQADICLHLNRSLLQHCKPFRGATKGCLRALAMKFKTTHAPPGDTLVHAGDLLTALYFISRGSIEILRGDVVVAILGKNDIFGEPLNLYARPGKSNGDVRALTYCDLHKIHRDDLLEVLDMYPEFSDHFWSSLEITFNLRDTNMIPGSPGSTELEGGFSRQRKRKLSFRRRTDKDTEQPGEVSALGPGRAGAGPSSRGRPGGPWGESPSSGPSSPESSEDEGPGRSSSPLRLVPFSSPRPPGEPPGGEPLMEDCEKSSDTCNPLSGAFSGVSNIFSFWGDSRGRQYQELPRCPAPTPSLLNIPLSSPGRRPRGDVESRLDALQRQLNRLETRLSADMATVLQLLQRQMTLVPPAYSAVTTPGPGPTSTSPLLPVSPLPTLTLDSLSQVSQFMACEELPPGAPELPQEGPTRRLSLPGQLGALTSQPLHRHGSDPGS
row,SMILES,"hERG current change (%, negative = inhibition) at 10uM"
1,c1ccc2c(c1)CCc1ccccc1C2=C1CCNCC1,8.87%
2,C=C(C)CN(CC)Cc1c(C(=O)N(C)CCCC)nc2ccccn12,-20.7%
3,Cc1ccc(C)c(-n2c(SCC(=O)Nc3nonc3C)nnc2-c2ccoc2C)c1,-61.2%
4,Cc1ccc2nc(N(CCCN(C)C)C(=O)CCc3ccccc3)sc2c1.Cl,-66%
5,COc1cccc(CNCCc2c[nH]c3ccccc23)c1OCc1ccccc1F.Cl,-55.8%
6,O=C(CCCNS(=O)(=O)c1cccs1)N1CCc2ccccc2C1,-18.4%
7,CN1CC(=O)N/C1=N\C(=O)Nc1ccc2c(c1)N(C)C(=O)CS2,-19.7%
8,COCc1c(C(=O)N/N=C\c2cccnc2)nnn1-c1nonc1N,5.65%
9,Cc1cccc(C)c1NC(=O)N1CC=CCC1,12.8%
10,COc1ccc(-c2[nH]ncc2-c2cscn2)c(O)c1,11.5%
11,COc1ccc(NC(=S)Nc2cnc3ccccc3c2)c(OC)c1,-0.946%
12,CCCc1[nH]n(-c2ccc(F)cc2)c(=O)c1C=Nc1ccc(C)cc1,4.95%
13,COC(=O)Cc1csc(Nc2ccccc2)n1,-4.33%
14,COc1ccc(OC)c(C2C(C#N)=C(N)Oc3c2c(C)nn3-c2cccc(Cl)c2)c1 (stereo not shown),1.48%
15,Cc1nccn1-c1ncnc2sc3c(c12)CCCC3,-8.25%
16,Cn1nnnc1SCC(=O)Nc1nc2ccccc2s1,13.1%
17,O=C(Cn1cc(SCc2ccc(F)cc2)c2ccccc21)N1CCOCC1,-29.9%
18,Cc1cc(C(=O)Nc2ccc(N3CCOCC3)c(Cl)c2)c(C)o1,1.11%
19,C=C(C)C(=O)Nc1cccc(C2=NOC3(C2)C[C@@H](C(N)=O)N(C(=O)/C=C/C=C/C)C3)c1 (stereo partly shown),-1.74%
20,Cn1cnc([N+](=O)[O-])c1NCc1ccccc1,10.3%
21,CC(OC(=O)C1CCN(c2ccc(C(F)(F)F)cn2)CC1)C(=O)Nc1ccc(S(N)(=O)=O)cc1 (stereo not shown),14.2%
22,c1c2c(cc3sc(N4CCCCC4)nc13)OCO2,11.3%

row,SMILES,"hERG current change (%, negative = inhibition) at 10uM"
1,O=S(=O)(NCC(c1cccnc1)N1CCN(c2ccc(F)cc2)CC1)c1cc(F)ccc1F (stereo not shown),-65.8%
2,CS/C(=N\NC(N)=O)c1ccccc1,-8.24%
3,Cc1ccc2c(=O)cc(C(F)F)oc2c1,-4.38%
4,O=C(Oc1ccc2c(c1)O/C(=C\c1ccncc1)C2=O)c1ccccc1,4.73%
5,Cc1nn(CCCC(=O)NCCc2ccc(Cl)cc2)c(=O)c2nn(-c3ccccc3)c(C)c12,12.2%
6,C=CCC(=O)N1CCCC(CO)(Cc2ccc(F)cc2F)C1 (stereo not shown),0.892%
7,Cc1cc(=O)n2nc(N3CCCC(C(=O)NC4CCCCC4C)C3)sc2n1 (stereo not shown),9.32%
8,Cc1cc(N=Cc2c(O)n(-c3cccc(C(F)(F)F)c3)c(=O)c3ccccc23)no1,-0.361%
9,O=[N+]([O-])c1ccc(N2CCN(S(=O)(=O)c3ccccc3)CC2)cc1,-46.9%
10,O=C(COc1ccccc1F)Nc1ccc2c(c1)OCCO2,16.8%
11,CC(C)[C@H](N)c1nnc(SCC(=O)c2ccc(Cl)cc2)o1.Cl,-14.2%
12,CC(=O)OC1N=C(c2ccccc2)c2cc(C)ccc2NC1=O (stereo not shown),-11.5%
13,O=C1NC(CCc2ccccc2)C(=O)N1CCOc1ccccc1 (stereo not shown),8.06%
14,Cl.Fc1cccc(Cl)c1CNCCCSc1ncccn1,1.34%
15,Oc1ccc(Cl)cc1CNc1cccc2cccnc12,28.3%
16,COc1ccccc1CCC(=O)OCC(=O)Nc1ccc2[nH]c(=O)[nH]c2c1,6.56%
17,O=C(c1ccccc1)c1ccc(C(=O)N2CCN(c3ccc(F)cc3)CC2)o1,-78.4%
18,O=C(O)Cn1cc(/C=C2\C(=O)NC(=O)N(c3ccc(Br)cc3)C2=O)c2ccccc21,18.2%
19,COc1ccccc1Nc1ncnc2sccc12,13.3%
20,CC(C)C(=O)NCCc1nc2ccccc2n1CCCOc1ccc(Cl)cc1,-41.7%
21,COc1ccc(-c2cc(C(=O)Nc3ccccc3O)c3ccccc3n2)cc1OC,5.99%
22,C/C=C(/C)C(=O)O[C@@H]1[C@H](OC(=O)C=C(C)C)c2c(ccc3ccc(=O)oc23)OC1(C)C,-0.258%

row,SMILES,"hERG current change (%, negative = inhibition) at 10uM"
1,O=C(NCC1CCCO1)c1ccc(CS(=O)(=O)c2c(Cl)cccc2Cl)o1 (stereo not shown),-3.91%
2,COc1ccc(CCCNC(=O)C2CCC(=O)N(CCCN3CCCC3=O)C2)cc1 (stereo not shown),18.9%
3,O=C(CN(c1cccc(C(F)(F)F)c1)S(=O)(=O)c1ccc(Cl)c([N+](=O)[O-])c1)NCc1ccccc1Cl,-9.63%
4,NC(=O)c1ncn([C@@H]2O[C@H](CO)[C@@H](O)[C@H]2O)n1,34%
5,O=C(NCC1CCCO1)C1CC(c2ccc(Cl)c(Cl)c2)=NO1 (stereo not shown),-20.1%
6,Cc1cc(C(=O)OCC(=O)N2CCCC2)c2ccccc2n1,-9.04%
7,CC(C)(C)NC(=O)C1CC(=O)OC12CCOC(C)(C)C2 (stereo not shown),44.4%
8,COc1ccc(NC(=O)CCN2C(=O)[C@@H]3[C@H](C2=O)[C@H]2C=C[C@@H]3C2)cc1,19%
9,CC1CCN(C(=O)CSc2nc(C3CC3)nc3ccccc23)CC1,5.49%
10,O=C(N/N=C(\CC(=O)c1cccs1)C(F)(F)F)c1ccncc1,2.66%
11,COc1cccc(CN2CCNC(=O)C2CC(=O)NC2CCCC2)c1OC (stereo not shown),6.35%
12,CCOC(=O)C1CCCN(c2c(NCCCN(CC)c3ccccc3)c(=O)c2=O)C1 (stereo not shown),-47.8%
13,CCN1CCN(c2ccc(S(=O)(=O)N3CCOCC3)cc2NC(=O)CC(C)C)CC1,0.99%
14,O=C(CSc1n[nH]c(-c2ccncc2)n1)c1ccccc1,11.7%
15,COCCCn1c(=O)c2ccccc2n(CC(=O)NC2CCCCC2)c1=O,20.1%
16,Cc1nn(CC(=O)O)c(C)c1[N+](=O)[O-],0.246%
17,O=c1[nH]c(=S)n(-c2cccc(Cl)c2)c(O)c1C=NCCN1CCNCC1,8.55%
18,CCOc1cc(NC(=O)c2cccs2)c(OCC)cc1NC(=O)CCC(=O)NCc1ccccn1,-8.77%
19,CNC(=O)CSc1nnc(-c2ccco2)n1-c1cccc(C)c1C,15%
20,Oc1cccc(Nc2ncnc3ccccc23)c1,3.18%
21,CCNC(=O)COc1ccc(/C=C2\COc3ccccc3C2=O)cc1OC,-71.8%
22,CCCn1c(=O)[nH]c(=O)c2c1nc(-c1ccc3c(c1)OCCO3)n2CCN1CCOCC1,-2.05%

row,SMILES,"hERG current change (%, negative = inhibition) at 10uM"
1,CCOC(=O)CC1CCCCN1C(=O)c1ccc2oc(CCc3ccccc3)nc2c1 (stereo not shown),-18%
2,CC(C)(C)OC(=O)N1Cc2ccccc2C[C@H]1C(=O)NCC(=O)NC1CCCCC1,4.83%
3,Cc1ccc(NC(=O)c2cc(N3C(=O)C=CC3=O)ccc2Cl)cc1C,1.53%
4,N#CC1=C2Sc3ccccc3N2CCCC1=O,-1.25%
5,CCOC(=O)Nc1ccc(OCc2nnc3c4ccccc4c(C)nn23)cc1,-1.67%
6,COc1ccccc1CNC(=O)CCN=C1NS(=O)(=O)c2ccccc21,-18.3%
7,COc1ccc(OCC(=O)Nc2cccc3ncccc23)cc1,-2.78%
8,O=C(COC(=O)/C=C/c1ccc(Cl)c(Cl)c1)NC1CCS(=O)(=O)C1 (stereo not shown),-6.54%
9,COc1cc(OC)cc(C(=O)NCc2ccc(-n3cccc3)cc2)c1,9.48%
10,COc1ccc(NC2CCCN(C(=O)CCN3CCCC3=O)C2)cc1 (stereo not shown),12%
11,CC(Nc1nc(-c2cccc(Br)c2)cs1)c1nc2cc(Cl)c(N3CCCCC3)cc2n1CCOCCO (stereo not shown),-19.1%
12,Cc1cnc(NC(=O)/C=C/c2ccc(Br)o2)s1,-5.35%
13,COc1cc2c(cc1OC)C(C(=O)O)C(c1ccc(C)o1)N(C)C2=O (stereo not shown),8.99%
14,COC(=O)c1cccc(-n2c(C)cc(C=O)c2C)c1C,-1.4%
15,Cc1ccccc1CC(=O)OCC(=O)Nc1ccc(C)c(S(=O)(=O)N2CCCCC2)c1,0.386%
16,Cc1cccc(NC(=O)CNC(=O)CNC(=O)Cc2ccccc2)c1,-5.39%
17,O=C(C1CCC1)N1CCc2cc(S(=O)(=O)Nc3ccc4c(c3)OCO4)ccc21,-1.44%
18,O=S(=O)(NC1CCCCC1)c1ccc(Br)s1,-4.25%
19,COc1ccc(NC(C)C(=O)Nc2cc(C(F)(F)F)ccc2N2CCOCC2)c(OC)c1 (stereo not shown),-19.2%
20,COc1ccc(-c2oc3ccc(N4CCOCC4)cc3c2C#CC2(O)CCCCC2)cc1,17.3%
21,O=C(CCc1nnc(CCC2CCCCC2)o1)NCCc1cccnc1,-0.392%
22,CCOC(=O)c1cnn(-c2nc(SC)nc3sc4c(c23)CCC4)c1N,-9.42%
